Data: PubChem BioAssay AID1345082 (National Center for Advancing Translational Sciences (NCATS), 2018)
Among all 94,000 compounds or so, about 4,000 (4.3%) were called active. This list was built around the results that the source calls inconclusive (neither active nor inactive); the mix of calls is not that of the screen. Calls follow the shape of the dose curve; as a rule, active = well fitted inhibition curve with a large enough effect; inconclusive = small, poorly fitted or top-dose-only effect; inactive = no such curve, though single readings can be large or run the other way. Potencies of inconclusive entries are doubtful fits and often do not repeat.

Experiment: Cytotoxic Profiling in NIH 3T3 Cell Line of Diverse Libraries Using Quantitative High-Throughput Screening; also: nearly all actives have a fitted effect of over 55% in size
Settings: NIH 3T3 viability, CellTiter-Glo ATP luminescence, 48-72 h; series mostly up to 96.7 µM
In short: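 Mouse fibroblast NIH 3T3 cells, 400 per well, received compound via pintool and were incubated for 48 or 72 hr prior to CellTiter-Glo ATP luminescence measurement.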
Potency is read from the fitted curve at half-maximal effect; tags tell the direction and shape of the fitted curve.

| Structure (SMILES) | Potency |
| --- | --- |
| O=C1CC(c2ccccc2)N(C(=O)CNC(=O)C2(c3ccccc3)CC2)CCCCCN1 (stereo unspecified) | inactive |
| CC(=O)c1ccc(NC(=O)N[C@H]2CO[C@H]3[C@@H]2OC[C@@H]3n2nnnc2Oc2ccc(-n3ccnc3)cc2)cc1 | inactive |
| O=C1Nc2ccc(-c3cccc(C(F)(F)F)c3)cc2C(=O)N2C[C@H](O)C[C@@H]12 | inconclusive: 63.1 µM [inhibitor, partial curve, poor fit] |
| CCN1C[C@H]2COc3ccccc3[C@H]2N(C(=O)COC)CCC1=O | inconclusive: 79.4 µM [inhibitor, single point] |
| N#Cc1ccc(CN2CCn3c(nnc3-c3cccnc3)C2)cc1 | inactive |
| CN(c1ccccc1)c1cc(=O)c2ccnc(-c3ccncc3)c2o1 | active: 25.1 µM |
| COc1cccc2c1CCN=C2C[C@H]1CN(C(=O)C(C)(C)C)CC[C@H]1CC(=O)O | inactive |
| Cc1occc1C(=O)N[C@@H]1CN(c2ccncn2)C[C@H]1CN(C)C | inactive |
| COc1ccc(C(=O)N2CCCN(c3cc(-c4ccc(Br)cc4)[nH]n3)CC2)cc1F | active: 22.4 µM |
| C#CCN(C)C(=O)c1onc(-c2ccc(Cl)cc2)c1[C@H](C)O | inconclusive: 100 µM [inhibitor, partial curve, poor fit] |
| O=C(Nc1ccc(OC(F)(F)F)cc1)N[C@@H]1C=C(C(=O)N[C@H]2CCCNC2=O)C[C@@H](O)[C@@H]1O | inactive |
| COc1cc(F)ccc1-c1nccc2c(=O)cc(-c3cccnc3)oc12 | inconclusive: 25.1 µM [inhibitor, partial curve, poor fit] |
| O=C(NC1CCN(c2cc(-c3ccc(Cl)cc3)[nH]n2)CC1)c1ccc2c(c1)OCO2 | inconclusive: 50.1 µM [inhibitor, partial curve, poor fit] |
| Cc1ccc2c(c1)[C@@H]1[C@H](CO2)CN(CCC#N)C(=O)CCN1[S+](=O)([O-])c1ccccc1 | inconclusive: 79.4 µM [inhibitor, partial curve, poor fit] |
| O=C(Cc1cccnc1)N1CCCCCCn2c(nnc2-c2ccc(F)cc2)CC1 | inactive |
| Cc1csc(Nc2ccc3ncn(Cc4ccccc4)c(=O)c3n2)n1 | inconclusive: 2.82 µM [inhibitor, full curve, poor fit] |
| COc1ccc(-c2ccc(C(=O)Nc3ccc(F)cc3)c(Cl)c2)nn1 | inconclusive: 50.1 µM [inhibitor, partial curve, poor fit] |
| CCN(Cc1ccccc1)C(=O)CCC[C@H]1NC[C@@H]2CC1CN(Cc1ccccc1)C2 | inconclusive: 50.1 µM [inhibitor, partial curve, poor fit] |
| O=C1COc2ccc(-c3ccsc3)nc2CN1Cc1ccc(C(F)(F)F)cc1 | inconclusive: 100 µM [inhibitor, partial curve, poor fit] |
| COc1ccc(NC(=O)c2ccc3c(c2)N(C)C2CCCCCN2C3=O)cc1Cl (stereo unspecified) | active: 39.8 µM |
| COc1cc(CN2CCN(c3ncnc4[nH]ccc34)CC2CCO)cc(OC)c1 (stereo unspecified) | inconclusive: 50.1 µM [inhibitor, partial curve, poor fit] |

| Structure (SMILES) | Potency |
| --- | --- |
| O=C(NCC1CN(C(=O)Cc2cccc(OC(F)(F)F)c2)CC12CN(c1ccccc1)C2)c1ccccc1 (stereo unspecified) | inconclusive: 28.2 µM [inhibitor, full curve] |
| O[C@@H]1C[C@@H](c2nc(-c3ccccc3)no2)N(Cc2cccc(OC(F)(F)F)c2)C1 | inconclusive: 126 µM [inhibitor, single point] |
| CC(C)CCN1CCOc2cc(C(=O)NCc3ccccc3)ccc2C1 | inconclusive: 56.2 µM [inhibitor, partial curve, poor fit] |
| Cc1nn(CCC#N)c(C)c1[C@@H]1C=C[C@@H](NC(=O)Nc2ccc(Cl)cc2)C1 | inconclusive: 100 µM [inhibitor, partial curve, poor fit] |
| CNC(=O)[C@@H]1CN(C(=O)c2ccc(C)[nH]c2=O)C[C@H]1c1nc(COC)no1 | inconclusive: 79.4 µM [inhibitor, partial curve, poor fit] |
| O=C(c1ccc2c(c1)OCO2)N1CCC(c2n[nH]c(=O)n2Cc2ccc(F)cc2)CC1 | inconclusive: 31.6 µM [inhibitor, full curve] |
| O=C1CCCN1CC1CCN(C(=O)c2ccc(N3CC[C@@H](O)C3)nc2)CC1 | inactive |
| CCc1ccc(S(=O)(=O)N2CCC(n3cnnc3CC)CC2)cc1 | inconclusive: 44.7 µM [inhibitor, partial curve, poor fit] |
| CCN1C(=O)C2CC3(CCN(Cc4cccc(OC(F)(F)F)c4)CC3)CN2C1=O (stereo unspecified) | inconclusive: 44.7 µM [inhibitor, partial curve, poor fit] |
| CN(Cc1nc2ccc(Cl)cc2[nH]1)C(=O)c1ccc2nccn2c1 | inconclusive: 39.8 µM [inhibitor, partial curve, poor fit] |
| Cc1ccc(-c2noc(-c3nc(-c4cccnc4)no3)n2)cc1 | inactive |
| CN(Cc1cccc(C(F)(F)F)c1)Cc1ccnn1C | inactive |
| C[C@@H]1CN(c2nc(-c3ccccc3)no2)CC[C@@]1(O)C1CCC1 | inconclusive: 28.2 µM [inhibitor, partial curve, poor fit] |
| CC(C)c1ccccc1NC(=O)Cn1cccc1-c1nc(-c2ccc(F)cc2)no1 | inactive |
| O=C(NCCc1ccccc1)C1CCN(C(=O)c2ncn3c2COC(c2ccc(Cl)cc2)C3)CC1 (stereo unspecified) | inactive |
| Cc1ccccc1Oc1ncccc1CNC(=O)CCc1c(C)nn(C)c1C | inactive |
| O=c1cc(N2CCOCC2)oc2c(NCc3ccc(F)cc3)nccc12 | active: 25.1 µM |
| O=C(O)CCn1ncc2cc(OC3CCN(C(=O)OCc4ccccc4)CC3)ccc21 | inconclusive: 3.55 µM [inhibitor, full curve, poor fit] |
| Cc1ccc(-c2cn3c(n2)CO[C@@H](CNS(C)(=O)=O)C3)cc1 | inactive |
| CC(C(=O)N1CCCN(C)c2ccccc21)c1ccccc1 (stereo unspecified) | inconclusive: 44.7 µM [inhibitor, partial curve] |
